# Test results: the supplement of paper PMC3334620
# The full ranking holds about 33,000 sequences; the median of “E-score (-0.5 to 0.5)” is about -0.013, and the highest 2% start at about 0.3. The list shows a part of the results.
# Target: T1, Msn1 (UniProt P22148)
# T1 sequence: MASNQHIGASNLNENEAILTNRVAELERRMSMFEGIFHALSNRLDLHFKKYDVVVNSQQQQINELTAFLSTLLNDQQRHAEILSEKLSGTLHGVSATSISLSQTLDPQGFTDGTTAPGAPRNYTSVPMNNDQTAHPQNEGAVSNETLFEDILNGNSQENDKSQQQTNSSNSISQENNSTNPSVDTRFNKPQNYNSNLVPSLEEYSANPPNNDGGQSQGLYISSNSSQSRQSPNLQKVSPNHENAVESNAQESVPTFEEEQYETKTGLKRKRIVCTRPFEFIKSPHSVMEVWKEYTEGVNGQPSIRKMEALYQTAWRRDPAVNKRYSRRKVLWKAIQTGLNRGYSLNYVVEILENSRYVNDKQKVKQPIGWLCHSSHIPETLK
# Assay: PBM E-score (8-mer binding enrichment) (E-score (-0.5 to 0.5)); higher = stronger / more preferred TF binding; most listed sequences are background and not binding sites
# Conditions: protein concentration: 200 nM; construct: GST-full length
# Outline: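 For each ungapped eight-base word taken together with its reverse complement, the Universal PBM Analysis Suite assigned an E-score. Binding data came from GST-tagged yeast transcription factors, applied at about 100-200 nM, on universal all-10-mer Agilent arrays made double-stranded by primer extension. Fluorescent anti-GST marked bound protein, and scans were normalised with masliner.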
row,Sequence,PBM E-score
1,GTACCATA,0.0461
2,CGTACGTC,0.00863
3,GTCCAAAC,0.175
4,AACAGAGG,-0.14
5,ACTCACAC,-0.0577
6,GCGAGGAA,-0.148
7,GGCTCCAC,-0.386
8,GATGGTCC,-0.0591
9,ACGCAATA,0.0746
10,TATGTTGA,0.0896
11,CCAGGACA,0.469
12,GACGTCCA,0.207
13,AGTCAAGG,-0.102
14,ACACTTAC,0.19
15,GCTCGAAC,-0.114
16,CGGTTAGA,-0.22
17,CCCCGAGG,-0.0295
18,ACGTTCTG,0.0235
19,ACATTGCA,0.0905
20,AACGCCCG,-0.0596
21,CATGAAGC,0.0531
22,CTAGAACC,-0.157
23,ATCCGCAT,0.0989
24,AAACTTGT,0.273
25,CGATCTCA,-0.00064

row,Sequence,PBM E-score
1,GGGCCGAA,-0.19
2,ATGTGAAA,-0.0025
3,ACCACCAA,-0.185
4,ACAATTCT,0.188
5,GCTGTAGA,0.00459
6,AAGTGCTC,-0.172
7,CTCAGTGA,-0.0334
8,ATGATCAG,0.0415
9,CAGTAGTA,-0.00219
10,TCGCATCA,0.0502
11,GAGTATCA,-0.144
12,GGGTTCAC,-0.0777
13,CATAGACC,-0.0541
14,ATGCTGTA,0.165
15,GAGTATCC,-0.0665
16,GGGATCTA,-0.115
17,ATAGCCGA,0.0849
18,TCGTCCCA,0.213
19,AACGCAGT,-0.207
20,CTAACAGC,-0.0745
21,CAGCCCTA,0.00696
22,AATATATA,0.209
23,ATTTGTAA,0.169
24,ATTTCGTG,0.179
25,AGGACCCG,-0.0271

row,Sequence,PBM E-score
1,GAACCTTA,0.0292
2,ATGGTTGG,0.00062
3,AGTAATGG,-0.0129
4,AGCTTCCT,0.0738
5,AATCGGAA,0.16
6,AAAACCGT,0.118
7,GGGGAGGA,-0.274
8,CGCCAACA,0.0678
9,CTTCTACA,0.0255
10,GCAGGGAA,-0.0187
11,CTTGTAAA,0.114
12,GGCGGAGA,-0.101
13,GCATCGGC,-0.0598
14,GTAGGTTA,-0.0951
15,GTCTAAGA,0.179
16,ACCTTTAT,-0.0516
17,AGGAGACA,0.0232
18,CTGGGTTC,-0.119
19,GTAAGAGA,-0.0347
20,GCGTACCC,-0.142
21,CAATTCGC,0.231
22,ACGTGCTA,-0.167
23,CACTGCGA,-0.178
24,CTTCTCAA,-0.118
25,GTTTTACA,-0.0921

row,Sequence,PBM E-score
1,CTCTATTC,-0.0327
2,GTAATGAC,0.126
3,ATCCACGC,-0.11
4,GGTCCCTA,-0.0166
5,CGATATAC,-0.0803
6,CTGTCGTA,-0.0467
7,GCCCTCAA,-0.252
8,ACCGGAGA,0.142
9,CGTAGAGA,0.0273
10,CTCGCCGC,-0.0571
11,AACCCGAG,0.13
12,ATCCAGGC,-0.191
13,CTCTAGCC,-0.137
14,GGAAGCCC,-0.227
15,CCGAAGAC,0.149
16,CGCGTTGA,-0.0678
17,GTATACCA,-0.0444
18,AAACACTA,0.0993
19,AAAAGGGA,0.0884
20,AACATGCG,0.0442
21,CCTAACGA,-0.0165
22,AAAAAGAT,0.0547
23,AGGAAGTA,-0.0694
24,CTCCCCGC,-0.0568
25,AGGATGCG,-0.124

row,Sequence,PBM E-score
1,GTTCCGTA,0.101
2,ACTAGAAG,-0.106
3,CGGCTAAA,0.169
4,GACGCGTC,0.0432
5,GGGGGTCA,-0.36
6,TGTTTGAA,0.138
7,AGAATTCG,-0.035
8,ACGTGGTG,-0.0637
9,ATGGCACC,-0.104
10,AGTTTTAC,0.0868
11,CGCGTTGC,0.161
12,CTTGACCA,0.00926
13,CGGGTGCC,-0.181
14,ACTGTAAC,-0.113
15,CAGTTGAA,0.114
16,ACGCATCA,0.133
17,AAGTAGCG,-0.176
18,CGGTCAAG,0.0408
19,GAACCAGA,-0.179
20,GGCCCCGA,-0.107
21,CAAGTTCC,0.00914
22,AGATAGAG,0.00936
23,CACCCAGG,-0.205
24,TCCAAGAA,-0.0356
25,AAGCTAAG,-0.177

row,Sequence,PBM E-score
1,CCACGGAG,0.0292
2,TTCTCAAA,0.168
3,CCAGTTTC,-0.128
4,AAGCTTAA,5e-05
5,GCTCTGCA,-0.327
6,CACCACGG,-0.138
7,AACTACCA,-0.0694
8,GGTCGTCA,-0.0599
9,CTAAACCC,0.00369
10,CAAACTTA,0.193
11,ATTTTGGG,0.188
12,CACATACA,0.0971
13,CCTAAACC,-0.0782
14,CTAGATCC,-0.119
15,ACGGTGAA,0.0567
16,GTCGTCAC,0.00131
17,GCCTGTGA,-0.242
18,GGTCTCAA,0.0652
19,ATTATTAG,0.175
20,CCCAACAA,-0.0384
21,AGCATGCT,-0.0522
22,CGACACAG,0.154
23,GAATTAAA,0.0652
24,ACCGCCGG,-0.184
25,GTTGTTCA,-0.0397

row,Sequence,PBM E-score
1,TAGTACTA,0.135
2,CTACGTTA,0.0203
3,AGCACTTA,-0.039
4,ATTAGGTC,0.223
5,AAGCTACA,-0.0106
6,ATGCTTAA,-0.0652
7,CATCACGC,0.0179
8,CATTCCTC,-0.164
9,GACCCTTA,-0.246
10,AAGATTAA,0.151
11,GAAACCTA,-0.0672
12,TCATGTAA,0.119
13,AGCGGCCC,-0.244
14,AAATGCGT,0.033
15,ATTTGTAC,0.46
16,CATAGACA,0.35
17,GAGTCTGA,-0.147
18,GCGTTCAC,-0.00361
19,ATGTTGCC,-0.104
20,CAAGCCTG,-0.0301
21,ACTACAGT,-0.105
22,ACTTCTCC,-0.267
